# From publication PMC4336329 (PLoS ONE, 2015)
# In all, about 310,000 compounds went through this assay and about 14,000 (4.5%) showed an effect of 50% or more. Effects have a minus sign here. Some of the results follow.
# Target: human ether-à-go-go-related gene (hERG) potassium channel (human, UniProt Q12809)
# Assay: primary screen, population patch clamp on CHO cells stably expressing hERG
# 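Also: peak tail current of the secondary pulse compared with the same well before compound.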
# Sequence of human ether-à-go-go-related gene (hERG) potassium channel (Q12809 whole entry, looked up): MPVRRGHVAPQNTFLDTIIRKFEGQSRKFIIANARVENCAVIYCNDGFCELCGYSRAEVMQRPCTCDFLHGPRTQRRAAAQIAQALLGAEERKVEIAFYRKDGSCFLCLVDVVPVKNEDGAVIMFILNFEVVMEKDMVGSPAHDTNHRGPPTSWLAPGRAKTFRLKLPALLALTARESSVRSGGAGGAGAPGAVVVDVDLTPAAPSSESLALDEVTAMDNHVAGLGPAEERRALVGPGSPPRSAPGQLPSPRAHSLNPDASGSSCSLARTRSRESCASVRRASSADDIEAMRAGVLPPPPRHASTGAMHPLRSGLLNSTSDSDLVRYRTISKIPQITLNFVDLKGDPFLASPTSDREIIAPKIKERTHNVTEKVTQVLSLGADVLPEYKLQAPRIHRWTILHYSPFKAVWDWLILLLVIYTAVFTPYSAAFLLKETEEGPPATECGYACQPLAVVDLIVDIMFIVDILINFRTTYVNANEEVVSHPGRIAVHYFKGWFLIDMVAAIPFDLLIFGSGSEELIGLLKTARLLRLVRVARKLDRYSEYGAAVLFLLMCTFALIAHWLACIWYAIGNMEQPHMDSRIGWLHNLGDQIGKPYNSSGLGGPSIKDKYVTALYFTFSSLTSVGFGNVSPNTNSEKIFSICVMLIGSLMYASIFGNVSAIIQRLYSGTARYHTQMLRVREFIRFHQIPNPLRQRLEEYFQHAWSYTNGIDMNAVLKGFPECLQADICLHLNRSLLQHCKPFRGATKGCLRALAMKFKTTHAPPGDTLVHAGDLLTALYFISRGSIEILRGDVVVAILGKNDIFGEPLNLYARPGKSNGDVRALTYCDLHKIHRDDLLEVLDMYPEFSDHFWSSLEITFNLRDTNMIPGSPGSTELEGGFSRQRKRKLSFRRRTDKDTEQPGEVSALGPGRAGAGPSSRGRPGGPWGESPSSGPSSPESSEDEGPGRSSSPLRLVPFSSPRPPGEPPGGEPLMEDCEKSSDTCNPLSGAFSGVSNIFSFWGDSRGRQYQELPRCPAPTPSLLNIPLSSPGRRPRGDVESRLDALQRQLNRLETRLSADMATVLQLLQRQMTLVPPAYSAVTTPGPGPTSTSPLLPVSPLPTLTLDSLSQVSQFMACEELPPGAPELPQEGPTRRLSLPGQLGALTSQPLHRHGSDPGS
row,Compound,"hERG current change (%, negative = inhibition) at 10uM [%]"
1,COc1cc(OC)cc(C(=O)N[C@H](C(=O)OCC(=O)Nc2ccc(F)c(F)c2F)C(C)C)c1,-34.8
2,CC(=O)C[C@H](O)CC(=O)[C@H]1OC(=O)[C@H](C)C/C=C\Cc2ccccc21,9.09
3,CC(C)(C)OC(=O)N1Cc2ccccc2C[C@H]1C(=O)NCC(=O)NC1CCCC1,7.24
4,COc1ccc(Cn2nnnc2C(c2cc3ccc(OC)cc3[nH]c2=O)N2CCCCCC2)cc1 (stereo not drawn),-13.6
5,Cc1cccc(CN(C(=S)Nc2c(C)cccc2C)c2cccnc2)c1,-9.13
6,Cc1oc(-c2ccc(Cl)cc2)nc1CS(=O)CC(=O)NCCCN(C)C1CCCCC1 (stereo not drawn),-30
7,CC(C)(C)C(=O)NC1(C(F)(F)F)NC(=O)N(CCc2ccccc2)C1=O (stereo not drawn),21.4
8,CC(C)CCOc1ccc(C2(C)NC(=O)N(CN3CCOCC3)C2=O)cc1 (stereo not drawn),11.4
9,Cc1cc(C)cc(C(=O)N(Cc2ccco2)c2c(N)n(Cc3ccccc3)c(=O)[nH]c2=O)c1,17.1
10,Cc1ccccc1-c1n[nH]c(=S)n1/N=C/C=C/c1ccco1,9.8
11,COc1cc([N+](=O)[O-])ccc1NC(=O)CN1CCCC1,3.84
12,COc1cc(OC)c(OC)cc1/C=N/NC(=O)c1cccc(S(=O)(=O)N2CCOCC2)c1,-3.28
13,O=C(NCCO)c1ccc2c3n(nc2c1)-c1ccccc1CO3,4.28
14,CC(C)(C)NC(=O)CSc1nncn1NCc1c(Cl)cccc1Cl,-10.3
15,Cc1cc(NC(=O)c2noc3c2CCCCC3)no1,-2.16
16,CCn1ncc(Br)c1C(=O)Nc1ccccc1OC,5.38
17,N#CCSc1nc2c(c(=O)n1Cc1ccccc1)C1(CCCC1)Cc1ccccc1-2,-6.03
18,O=C(CCN1C(=O)/C(=C/c2ccc3c(c2)OCO3)SC1=S)Nc1ccccc1,10
19,N#Cc1c(N)sc(=S)c2c1CCCC2,-1.64
20,COc1cc(/C=N\NC(=O)CNC(=O)c2cccc([N+](=O)[O-])c2)ccc1O,-7.02
21,CCN1CCn2c1nc(N1CCCCC1)nc2=O,-0.66

row,Compound,"hERG current change (%, negative = inhibition) at 10uM [%]"
1,COCCN(C(=O)c1snc(C(N)=O)c1N)C(C(=O)NC1CCCCC1)c1ccc(F)cc1 (stereo not drawn),16.9
2,CNC(=S)N/N=C/c1cn(CCOc2cccc(OC)c2)c2ccccc12,3.42
3,c1ccc(-c2[nH]ncc2CN2CCN(Cc3ccc4c(c3)OCO4)CC2)cc1,-37.9
4,COc1cc(/C=C2\SC(=O)N(CCNC(=O)c3cnc(C)cn3)C2=O)cc(OC)c1OC,9.78
5,CCn1cc(C(=O)N[C@H](C(=O)NCCCN2CCOCC2)C(C)C)c(=O)c2cc3c(cc21)OCO3,-2.69
6,Cc1nc(NC(=O)CN2CCN(c3cccc(Cl)c3)CC2)sc1C(=O)N(C)C,7.94
7,Cl.O=C(NN1CCN(Cc2ccccc2)CC1)c1ccc(N2CCOCC2)c([N+](=O)[O-])c1,-66.6
8,O=C(NCc1ccc(F)cc1)C1CCC(=O)N1C1CCCCC1 (stereo not drawn),-3.36
9,FC(F)(F)c1nc2ccccc2nc1N/N=C/c1c(Cl)cccc1Cl,13.9
10,O=C(CC1CCCC1)Nc1ccc2c(c1)CCC2,-7.45
11,CC[C@@H](C)C(C(=O)N1CCN(C(=O)OC(C)(C)C)CC1)n1cc(-c2cn([C@@H](C)C(=O)N3CCN(C(=O)OC(C)(C)C)CC3)nn2)nn1 (stereo partly drawn),16.3
12,O=S(=O)(Nc1nc2ccc(S(=O)(=O)N3CCCCC3)cc2s1)c1ccccc1,-8.76
13,O=C(NCCCNC(=O)C(F)(F)C(F)F)C(F)(F)C(F)F,6.91
14,COc1ccc(C(=O)NCCS(=O)(=O)NCc2ccc(F)cc2)cc1,-35.6
15,Cc1[nH]c2ccc(-c3n[nH]c(=S)n3Cc3ccccc3)cc2c1C,-7.46
16,O=c1[nH]c(SCc2ccc(Cl)cc2)nc2[nH]ncc12,2.83
17,Cc1ccc(S(=O)(=O)N(C)C)cc1NC(=O)c1cccs1,5.85
18,Cn1nccc1C(=O)NC1CCCc2c1cnn2-c1ccc(F)cc1F (stereo not drawn),5.84
19,NS(=O)(=O)c1ccc(NC(=O)CSc2nnc(Cc3cccs3)n2-c2ccccc2)cc1,7.57
20,CNc1nc(C)c(C(=O)OCC(=O)OC)s1,12.8
21,CCc1nc(SCC(=O)c2ccc3c(c2)OCCO3)c2ccccc2n1,-7.92
